Assay results: the supplement of paper PMC10126150
Sequences with one replicate were seen in a single cluster, so their values are uncertain.

System: ATP
Test: switch fluorescence ratio, 500 uM ATP over buffer (Cy3 cluster intensity, sum of 5 cycles each) (fold (ratio)); higher = stronger signal-on switching upon ATP binding; sequences stand for … in TCGTCGGCAGCGTCAGATGTGTATAAGAGACAGTTTTTTTTTTTTTTTTTTTTTTTTT…TC
Conditions: aptamer strand: ATP DNA aptamer (quencher-CACCTGGGGGAGTATTGCGGAGGAAGG + anchor), 100 nM annealed; ATP concentration: 500 uM; one replicate
How it was run: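 Imaging in selection buffer was followed by imaging after 15 min with 500 uM ATP at 22 °C, for Cy3-labelled switching-strand clusters annealed to 100 nM quencher-labelled ATP aptamer on a modified Illumina MiSeq flow-cell. Five of these buffer/ATP cycles ran, separated by NaOH stripping and re-annealing. The fluorescence ratio per cluster is summed target-cycle over summed buffer-cycle Cy3 intensity, averaged per switch-domain sequence; clusters outside 100-1000 RFU were removed.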
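Further: ATP exposure 15 min at 22 °C before imaging.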

AAAGACTGCG was tested, and the switch fluorescence ratio was 0.997.

AAGGACGGAT was tested, and the switch fluorescence ratio was 0.998.

With GCCGTGCTCG the switch fluorescence ratio was 1.01.

In the case of TGTGCTTCG, the switch fluorescence ratio is reported as 1.01.

With GAATAAACTC the switch fluorescence ratio was 1.

For AGGCGATACG, the switch fluorescence ratio was 1.12.

GCCGCAGAAT showed a switch fluorescence ratio of 1.23.

AAAGACTACG gave a switch fluorescence ratio of 1.06.

Sequence GCCAAAAGTC has a switch fluorescence ratio of 0.962.

AGGTACCCC was tested, and the switch fluorescence ratio was 1.07.

Work on TGCGGAGTTG yielded a switch fluorescence ratio of 0.99.

Work on GGGTGATTCG yielded a switch fluorescence ratio of 0.977.

Sequence AGGGGACAAG has a switch fluorescence ratio of 1.04.

In the case of CTATGGATGT, the switch fluorescence ratio is reported as 0.973.

For GGCCTAAGAG, the switch fluorescence ratio was 1.06.

Sequence TTGATACCCT has a switch fluorescence ratio of 1.03.

GGCGCCGGAG gave a switch fluorescence ratio of 1.04.

TTTTCGTGTC was tested, and the switch fluorescence ratio was 1.

Sequence GATCGCGAAT has a switch fluorescence ratio of 1.22.

Sequence GTCTTTTAAC has a switch fluorescence ratio of 0.949.

Sequence CGTAGAAATA has a switch fluorescence ratio of 1.07.

GGAGCGCGGA gave a switch fluorescence ratio of 1.05.

TTGGGTGTGA gave a switch fluorescence ratio of 1.1.

In the case of ATGGTAGAGA, the switch fluorescence ratio is reported as 0.994.

With GCCTGCTTTG the switch fluorescence ratio was 1.03.

Work on AATAAAGACT yielded a switch fluorescence ratio of 0.984.

Sequence ATCATTGAGT has a switch fluorescence ratio of 0.977.

Sequence GTAATGGGCG has a switch fluorescence ratio of 1.05.

Sequence CGTATATGGT has a switch fluorescence ratio of 1.

CTGTTACGTG was tested, and the switch fluorescence ratio was 1.01.

Sequence CTTCCGTAGA has a switch fluorescence ratio of 1.98.

GGGCATTACC was tested, and the switch fluorescence ratio was 1.02.

In the case of TCATCGATGT, the switch fluorescence ratio is reported as 0.972.

For ATACATCAGG, the switch fluorescence ratio was 1.14.

Sequence AGTCGTGGCG has a switch fluorescence ratio of 1.

TACTACGCTT gave a switch fluorescence ratio of 3.84.

In the case of CCCCTGGAAC, the switch fluorescence ratio is reported as 0.986.

In the case of AACACCAAGC, the switch fluorescence ratio is reported as 1.

TTAATTCTGT was tested, and the switch fluorescence ratio was 0.962.

CGCGTGTAGG showed a switch fluorescence ratio of 0.972.

GTTAGAGAAT gave a switch fluorescence ratio of 0.975.

With TGGGCCGTGT the switch fluorescence ratio was 1.05.

TAGTCGAGTC gave a switch fluorescence ratio of 0.918.

With TACGTCGTTT the switch fluorescence ratio was 0.951.

Work on AAACCTCGTA yielded a switch fluorescence ratio of 1.06.

TACATTGCTT gave a switch fluorescence ratio of 0.981.

With ACGGAAAAAA the switch fluorescence ratio was 1.05.

CCGGTTCACG gave a switch fluorescence ratio of 1.02.

GTAGTGGTTA gave a switch fluorescence ratio of 0.995.

For AATAGGCGGT, the switch fluorescence ratio was 1.

With TTGCGAGTGG the switch fluorescence ratio was 1.01.

With TGCGGCAGTG the switch fluorescence ratio was 0.967.

ATTGCTCATT was tested, and the switch fluorescence ratio was 1.01.

GCATGAGAGT gave a switch fluorescence ratio of 0.938.

With CGCTCTTCGA the switch fluorescence ratio was 1.03.

With TCCTTCGTGC the switch fluorescence ratio was 1.02.

In the case of TCACCGGTAA, the switch fluorescence ratio is reported as 1.15.

ATGCACTGCG showed a switch fluorescence ratio of 0.987.

In the case of TCATTAAAGT, the switch fluorescence ratio is reported as 1.16.

CATACCTTCG was tested, and the switch fluorescence ratio was 2.35.

With AGACCATTCA the switch fluorescence ratio was 1.05.

For CTTACCGGAA, the switch fluorescence ratio was 1.34.

GAATATCGCA gave a switch fluorescence ratio of 1.08.

CGTGAGATA showed a switch fluorescence ratio of 1.02.

With TATGTTTTTG the switch fluorescence ratio was 0.957.

With GATTGGCCTG the switch fluorescence ratio was 1.02.

With CAGGTCCCC the switch fluorescence ratio was 1.01.

ACGTTGGTAC showed a switch fluorescence ratio of 1.22.

For AATATGCGAA, the switch fluorescence ratio was 0.985.

With CGCTCCTTGG the switch fluorescence ratio was 1.08.

In the case of CGATGCCTTT, the switch fluorescence ratio is reported as 0.999.

In the case of GTTCCTGTG, the switch fluorescence ratio is reported as 0.995.

For CACTCTTCAC, the switch fluorescence ratio was 1.06.

Sequence CTAGCGAGTT has a switch fluorescence ratio of 1.01.

AAGTAAAACG showed a switch fluorescence ratio of 0.979.

In the case of ATATCGCCTA, the switch fluorescence ratio is reported as 0.994.

Work on AAGGTAATCT yielded a switch fluorescence ratio of 0.965.

With TTAGATAATT the switch fluorescence ratio was 0.968.

With TGGTTGCCTA the switch fluorescence ratio was 1.02.

Sequence TGCAGATTAA has a switch fluorescence ratio of 0.99.

In the case of AGCTATGCAT, the switch fluorescence ratio is reported as 1.03.

With AACTAGTGCT the switch fluorescence ratio was 0.953.

With CTCGTTCGTA the switch fluorescence ratio was 0.974.

In the case of GGCAGTAACT, the switch fluorescence ratio is reported as 1.03.

TGTTTCAGTA showed a switch fluorescence ratio of 0.964.
